Laboratory results published in the supplement of paper PMC11417369.
The other results are listed elsewhere or left out.

Test system: PF3D7_0420300 AP2 domain 1 (GST-tagged)
Assay: gcPBM binding intensity (ln(normalized median fluorescence intensity)); higher = stronger DNA binding
Outline: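 An Agilent 4 × 180k array carrying primer-extended double-stranded 36-bp intergenic genomic probes and negative controls received GST-tagged P. falciparum DNA-binding domains expressed in E. coli, about 25 μg on average, for 1 h. The binding buffer contained 1× PBS, 1% milk, 0.2 mg/ml BSA, 0.5% salmon testes DNA and 0.03% Triton X-100. Binding intensity is the top Masliner-normalised natural-log median intensity across replicate spots of either probe orientation, read after Alexa488 anti-GST antibody staining and a 488 nm scan.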

In order of rising “gcPBM binding intensity (ln)” value:
1. TATAAAAAATTAAAATTTTTCTTATTTTTTTTAGAT [TGCATGCA_negctrl_site125]  8.72
2. TAATTCGCAAAAGAAAGAAATTAAGAAAAAGAAAAA [XGTACX_negctrl_site614]  8.82
3. TATATATTTTTTAATTGTACACTTCAAAAACAAAAA [XGTACX_site5595]  8.92
4. AAAATATTATAAATTTGTACTTATAAATATTGTATA [XGTACX_site8165]  8.98
5. GTAGTTATATTAAGGGTGCTTAATTAGATTAAACAA  9
6. TAATATTTCATTAGGTGTACACTACATAGTAGTAGA [XGTACX_site366]  9.02
7. TTTTTTAAAATATGGACACACATATATATATCTGTA [CACACA_site5535]  9.1
8. TATGCAATATATTATATTCTGTAAATATTATATATT [TGCATGCA_negctrl_site67]  9.1
9. AGAATAAATAAATATTGTACATATAAAATATATATA [XGTACX_site896]  9.14
10. AAAAAAAAAAATATATTATTTTACTTGTTTATTTTT [GTGCAC_negctrl_site435]  9.15
11. TTAATATATTAAATCTTACACACTAAAAAATATGTA [CACACA_site307]  9.16
12. TCCTTACATTTTAAAACACACAAAAATTAATTGTTA [CACACA_site2313]  9.16
13. TACCAATAAATGAAGGTGCGTGCTTGCCTTTGCTAT  9.19
14. TTTCTTTTTTTTTTTTCATTGATCCATTTATGATTA [TGCATGCA_negctrl_site225]  9.22
15. TATGCGTCTTGCCTTGCACACTTTTATGAAAAAAAA [CACACA_site5174]  9.22
16. AAAAACTTAATATTGACACACATTTTTAAGAATAAT [CACACA_site4291]  9.26
17. TATAAATATTTTATTGTACACACTTTTTATGAATGA [CACACA_site3136]  9.27
18. TTTGTTTTAAATATTATACACACGTAAAAGTATAAT [CACACA_site7954]  9.28
19. ATAATCAACATTAGGTGTACAAAATATGTATGTTTT [XGTACX_site6696]  9.3
20. AAAATACCCATTTTAGTACACACTTAAAAAATTATT [CACACA_site8966]  9.31
21. ATATGTTATATGTAATGTACTTTTGATGTATATATT [XGTACX_site8615]  9.34
22. AATAATCAAATATTAAAAATTGTGCAAAAAAAAAAA [XGTACX_negctrl_site399]  9.35
23. GTTTGTTTGTTTGTTCGTACATATATAAAATAAAAA [XGTACX_site4731]  9.35
24. TTGAATAAATTGGAATAAATATAATAAAATAAGGAA [XGTACX_negctrl_site302]  9.36
25. TTCAATAGTAAGTATACACACATATATATATATAAA [CACACA_site2687]  9.38
26. ATTATAACACTTATTTCATTTGTATGCCCTTTAAAA [CACACA_negctrl_site955]  9.39
27. ATTGAACACATCTATGCATGCACGGAAAAAAGTACA [TGCATGCA_site401]  9.41
28. AAAAAATAGTGGTATGCATGTCCCTTGTATTTTCTT [TGCATGCA_site587]  9.44
29. TACTTTTATATGAATACACACAGGAATATAAATATG [CACACA_site7647]  9.45
30. TTCAAATTTCCACATACACACCTTGTAGATATATAT [CACACA_site7984]  9.48
31. TCGTACTTGTATTATGCACACATATAATTAAACATA [CACACA_site9089]  9.52
32. AGACCTATGATATATACACACATATATTTATTTATA [CACACA_site6630]  9.59
33. TAATATTATATATAAACACACATACCCATGTAAATA [CACACA_site5170]  9.6
34. TATATAACTAAAATAACACACATATATAAAAATATA [CACACA_site7416]  9.61
35. TAAAAAAAATAAACGTGTACATAAAAATGAATATGT [XGTACX_site119]  9.64
36. GAAAATATTATAGCACCACACACTTATTTTATATAT [CACACA_site2265]  9.64
37. TGGATACACAAAAATTAAAAAAATAAACAAACAAAT [GTGCAC_negctrl_site105]  9.73
38. TATGAAAAAATATATACACACATAATAAAGGTATAT [CACACA_site3737]  9.75
39. TTTTTAAAAATATACACACACAGATATTATAGATAT [CACACA_site6511]  9.79
40. ACCACCAGGAACAAAGCACATTAGGAAAAATAAAAC [XGTACX_negctrl_site228]  9.81
41. AACGTTAAAAAAAAAATATATATAAGGAGAAAGCAC [XGTACX_negctrl_site338]  9.9
42. CAAGCTATGTATTCTACACACACATACACCCATATA [CACACA_site9133]  9.98
43. AGTATACATATATATACACACACACCGATATATATA [CACACA_site8357]  10.1
44. CATACATATATTATTGCACACATATAAAATACCCCC [CACACA_site9292]  10.3
